Consider 28 compounds from the supplement of paper PMC5919970.

SMILES strings stand for the structures. Where a name gives a salt, the structure may show the parent alone. In all, about 2,000 compounds were measured (“fractional viability relative to vehicle”: median about 0.91, lowest 2% from about 0.045 on). This is one part of the list.

The subject of this assay is TYKNU. Kind of assay: fractional viability relative to vehicle; TYKNU is a high-grade serous ovarian cancer line; higher = less growth inhibition. As to conditions: 72 h. A digest of the protocol:
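TYKNU control cells or lentiCRISPRv2 knockout derivatives were plated at 500 cells per well in duplicate into drug-stamped 384-well plates holding a ~2100-compound library at 2 or 10 μM. Culture was in RPMI 1640 with 10% FBS at 37 °C in 5% CO2, with 72 h of drug treatment. Viability was measured by Cell Titer Glo luminescence, and the averaged duplicate treatment wells were normalised to duplicate control wells at the same plate position.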

Setting [1] is: 2uM, genotype: DNM1L knockout (sgDNM1L #1).
The mark [2] stands for this setting: 2uM, genotype: sgCTRLA1 (non-targeting control).
The mark [3] stands for this setting: 10uM, genotype: DNM1L knockout (sgDNM1L #1).
Setting [4] is: 10uM, genotype: sgCTRLA1 (non-targeting control).

With `O=C(Nc1ccccc1-c1cn2c(CN3CCNCC3)csc2n1)c1cnc2ccccc2n1`, the fractional viability reads like this: under setting [1], 0.608; under setting [2], 0.845; under setting [3], 0.0197; under setting [4], 0.00961.
Turning to `C[C@@H]1CCO[C@H]2Cn3cc(C(=O)NCc4ccc(F)cc4F)c(=O)c(O)c3C(=O)N12`, the fractional viability under setting [1] is 0.978, the fractional viability under setting [2] came to 1.12, the fractional viability under setting [3] amounted to 0.956 and the fractional viability under setting [4] turned out to be 0.994.
Regarding `O=C(C1CCCCC1)N1CC(=O)N2CCc3ccccc3C2C1` (configuration not stated) [Praziquantel], the fractional viability is 0.941 under setting [1], 0.996 under setting [2], 1.02 under setting [3] and 0.962 under setting [4].
In the same order, the values of `C[C@]1(O)C[C@@H](c2nc(-c3ccc4ccc(-c5ccccc5)nc4c3)c3c(N)nccn32)C1` [OSI-906 (Linsitinib)] are 0.888, 0.954, 0.728 and 0.899.
As to `CC(C)C[C@H](NC(=O)[C@@H](NC(=O)c1cccc(-c2ccccc2)n1)[C@@H](C)O)B(O)O`, the fractional viability reads like this: under setting [1], 0.106; under setting [2], 0.086; under setting [3], 0.121; under setting [4], 0.0773.
In the same order, the values of `OC[C@H]1O[C@H](O[C@]2(CCl)O[C@H](CCl)[C@@H](O)[C@@H]2O)[C@H](O)[C@@H](O)[C@H]1Cl` [Sucralose] are 0.825, 0.953, 0.653 and 0.96.
Take `CNC(=O)c1cc(Oc2ccc(NC(=O)Nc3cc(C(C)(C)C)nn3-c3ccc4ncccc4c3)c(F)c2)ccn1` [DCC-2036 (Rebastinib)]: the fractional viability by setting is: under setting [1], 0.757; under setting [2], 1.05; under setting [3], 0.201; under setting [4], 0.196.
In the same order, the values of `CN1CCC(=C2c3ccccc3CCc3cccnc32)CC1` [Azatadine dimaleate] are 0.22, 0.24, 0.146 and 0.224.
The corresponding values for `Nc1nc2ccc(OC(F)(F)F)cc2s1` [Riluzole] are 0.844, 1.19, 0.778 and 0.954.
For `COc1ccc2c(c1)c(CC(=O)O)c(C)n2C(=O)c1ccc(Cl)cc1` [Indomethacin], the fractional viability reads like this: under setting [1], 1.02; under setting [2], 1.18; under setting [3], 0.913; under setting [4], 1.18.
Take `CC[C@H]1OC(=O)[C@H](C)[C@@H](O[C@H]2C[C@@](C)(OC)[C@@H](O)[C@H](C)O2)[C@H](C)[C@@H](O[C@@H]2O[C@H](C)C[C@H](N(C)C)[C@H]2O)[C@](C)(O)C[C@@H](C)C(=O)[C@H](C)[C@H]2OC(=O)O[C@@]21C` [Erythromycin Cyclocarbonate]: the fractional viability is, setting by setting: under setting [1], 0.806; under setting [2], 0.903; under setting [3], 0.927; under setting [4], 0.877.
On to `Cc1c(OCC(F)(F)F)ccnc1C[S@@+]([O-])c1nc2ccccc2[nH]1` [Dexlansoprazole], for which the fractional viability amounted to 1.12 under setting [1], 1.16 under setting [2], 0.858 under setting [3] and 1.07 under setting [4].
Regarding `CC(C(=O)O)c1ccc(-c2ccccc2)c(F)c1` (configuration not stated) [Flurbiprofen], the fractional viability by setting is: under setting [1], 1.02; under setting [2], 1.1; under setting [3], 0.99; under setting [4], 1.05.
As for `Cc1cc(O)c2c(c1)C(=O)c1cccc(O)c1C2=O` [Chrysophanic Acid], the fractional viability under setting [1] turned out to be 0.947, the fractional viability under setting [2] was found to be 1.19, the fractional viability under setting [3] came to 0.926 and the fractional viability under setting [4] came out at 1.18.
The corresponding values for `NC(=O)c1cn(Cc2c(F)cccc2F)nn1` [Rufinamide] are 0.992, 1.08, 1.07 and 1.04.
With `C[C@H]1O[C@@H](O[C@H]2[C@@H](O)C[C@H](O[C@H]3[C@@H](O)C[C@H](O[C@H]4CC[C@@]5(C)[C@H](CC[C@@H]6[C@@H]5C[C@@H](O)[C@]5(C)[C@@H](C7=CC(=O)OC7)CC[C@]65O)C4)O[C@@H]3C)O[C@@H]2C)C[C@H](O)[C@@H]1O` [Digoxin], the fractional viability under setting [1] came out at 0.0546, the fractional viability under setting [2] worked out at 0.0452, the fractional viability under setting [3] stood at 0.032 and the fractional viability under setting [4] was found to be 0.0309.
Turning to `C=CCc1cccc(/C=N/NC(=O)CN2CCN(Cc3ccccc3)CC2)c1O`, the fractional viability was determined as 0.604 under setting [1], 0.671 under setting [2], 0.277 under setting [3] and 0.27 under setting [4].
The corresponding values for `CC(NC(=O)C(Cc1ccccc1)NC(=O)OCc1ccccc1)C(=O)CF` (configuration not stated) are 0.85, 0.869, 0.793 and 0.606.
Take `CC(C(=O)O)c1ccc2c(c1)[nH]c1ccc(Cl)cc12` (configuration not stated) [Carprofen]: the fractional viability runs as follows: under setting [1], 0.996; under setting [2], 0.999; under setting [3], 0.913; under setting [4], 1.02.
In the same order, the values of `O=C(Nc1cccc(C(F)(F)F)c1)Nc1cc(S(=O)(=O)NC2CC2)ccc1-c1ccsc1` are 0.923, 0.992, 0.712 and 0.909.
For the compound `O=C1c2c(O)cccc2C([C@@H]2O[C@H](CO)[C@@H](O)[C@H](O)[C@H]2O)c2cc(CO)cc(O)c21` (some centres not stated) [Aloin], the fractional viability turned out to be 0.838 under setting [1], 1.09 under setting [2], 0.828 under setting [3] and 1.06 under setting [4].
`Cc1ccccc1C(=O)Nc1ccc(C(=O)N2CCCC(O)c3cc(Cl)ccc32)c(C)c1` (configuration not stated) [Tolvaptan]: the fractional viability came to 0.886 under setting [1], 1.08 under setting [2], 0.662 under setting [3] and 1.01 under setting [4].
The corresponding values for `CN(C)C(=O)C(CCN1CCC(O)(c2ccc(Cl)cc2)CC1)(c1ccccc1)c1ccccc1` [Loperamide HCl] are 0.892, 0.98, 0.423 and 0.577.
In the same order, the values of `COc1ccc(/C=C/C(=O)Nc2ccccc2C(=O)O)cc1OC` [Tranilast] are 1.07, 1.13, 1.12 and 1.28.
With `CCN(CC)CCNC(=O)c1c(C)[nH]c(/C=C2\C(=O)Nc3ccc(F)cc32)c1C` [Sunitinib], the fractional viability came out at 0.544 under setting [1], 0.67 under setting [2], 0.0734 under setting [3] and 0.0439 under setting [4].
The corresponding values for `CCN(CC)CCNC(=O)c1c(C)[nH]c(/C=C2\C(=O)Nc3ccc(F)cc32)c1C` [Sunitinib Malate] are 0.853, 0.819, 0.169 and 0.122.
The corresponding values for `CCOC(=O)C1=C(COCCN)NC(C)=C(C(=O)OC)C1c1ccccc1Cl` (configuration not stated) [Amlodipine] are 0.946, 1.08, 0.516 and 0.843.
For the compound `Cc1ncc(CCCN(C)C)cc1Nc1ncc2c(n1)-c1ccc(C(F)(F)F)cc1NC(=S)C2`, the fractional viability is, setting by setting: under setting [1], 0.211; under setting [2], 0.231; under setting [3], 0.259; under setting [4], 0.251.
